In patent US20260347504 (published 2026) one finds Kd data, which are given here for two molecules.

The target of assay [1] is T1, human pCTS-L (human).
T1 chain: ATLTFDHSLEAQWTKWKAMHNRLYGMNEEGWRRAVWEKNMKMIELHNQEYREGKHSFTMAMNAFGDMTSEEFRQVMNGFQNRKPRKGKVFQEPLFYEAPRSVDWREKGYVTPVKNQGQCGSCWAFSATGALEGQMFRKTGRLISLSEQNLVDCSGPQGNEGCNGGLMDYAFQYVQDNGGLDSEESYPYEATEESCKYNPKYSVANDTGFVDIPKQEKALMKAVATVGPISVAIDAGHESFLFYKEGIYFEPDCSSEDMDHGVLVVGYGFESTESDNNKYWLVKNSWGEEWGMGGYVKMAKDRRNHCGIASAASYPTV
Kind of assay: SPR, pCTS-L immobilized, reference without mAb20.

Assay [2] deals with T1, human pCTS-L. Description: SPR, pCTS-L immobilized.
Assay [3] has as its target T1, human pCTS-L. Description: SPR, pCTS-L immobilized, pre-incubated with mAb20.

B1: human TLR4 ECD (protein)
chain: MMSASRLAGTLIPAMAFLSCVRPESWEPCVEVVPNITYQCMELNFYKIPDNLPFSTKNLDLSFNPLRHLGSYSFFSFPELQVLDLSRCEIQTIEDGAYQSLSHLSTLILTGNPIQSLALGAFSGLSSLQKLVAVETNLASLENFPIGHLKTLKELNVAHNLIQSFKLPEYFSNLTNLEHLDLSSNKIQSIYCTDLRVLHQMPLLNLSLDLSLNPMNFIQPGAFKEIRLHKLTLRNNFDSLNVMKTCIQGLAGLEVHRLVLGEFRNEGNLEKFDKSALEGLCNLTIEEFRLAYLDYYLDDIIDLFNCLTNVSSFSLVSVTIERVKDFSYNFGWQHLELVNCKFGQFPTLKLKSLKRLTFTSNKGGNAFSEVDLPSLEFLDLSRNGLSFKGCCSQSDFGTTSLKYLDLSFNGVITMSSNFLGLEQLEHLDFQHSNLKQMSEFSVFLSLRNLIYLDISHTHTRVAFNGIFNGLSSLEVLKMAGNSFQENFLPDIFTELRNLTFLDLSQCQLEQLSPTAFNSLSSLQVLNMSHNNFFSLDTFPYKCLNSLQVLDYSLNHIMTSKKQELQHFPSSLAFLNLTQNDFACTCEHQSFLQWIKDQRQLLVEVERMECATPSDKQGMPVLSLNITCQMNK
For B1, the dissociation constant (Kd) was 20.3 nM with human pCTS-L [1], 20.2 nM with human pCTS-L [2] and 1140 nM in the assay with human pCTS-L [3].

B2: human RAGE ECD (protein)
chain: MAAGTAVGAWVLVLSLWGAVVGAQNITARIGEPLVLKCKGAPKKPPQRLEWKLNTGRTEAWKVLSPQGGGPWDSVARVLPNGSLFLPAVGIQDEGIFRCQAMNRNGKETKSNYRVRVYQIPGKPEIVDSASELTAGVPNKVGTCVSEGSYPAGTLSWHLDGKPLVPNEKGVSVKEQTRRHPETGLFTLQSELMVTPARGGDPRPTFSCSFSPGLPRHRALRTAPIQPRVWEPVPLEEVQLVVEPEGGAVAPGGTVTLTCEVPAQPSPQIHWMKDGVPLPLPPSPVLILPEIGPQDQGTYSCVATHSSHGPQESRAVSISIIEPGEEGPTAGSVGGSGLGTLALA
Take B2: the Kd stood at 3.1 nM in the assay with human pCTS-L [1], 3.5 nM with human pCTS-L [2] and 30.4 nM with human pCTS-L [3].
